Residue numbers refer to the chain shown, from its start. The list shows a part of the results.

The chains are these.
B1: UGGGGAG (DNA:RNA)
RNA: GGGAGACCGGAAUUCAGAUUGUCCUGGGGAGUUAAAUCCCGUCGUAGCCACCA
DNA 1: CAATCTGAATTCCGGTCTCCC
DNA 2: TGGTGGCTACGACGGGATT
B2: CAACCUC (DNA:RNA)
RNA: GGGAGACCGGAAUUCAGAUUGUCCCAACCUCUUAAAUCCCGUCGUAGCCACCA
DNA 1: CAATCTGAATTCCGGTCTCCC
DNA 2: TGGTGGCTACGACGGGATT
B3: GCGACUC (DNA:RNA)
RNA: B2 RNA with C25G, A26C, A27G, C28A
DNA 1: CAATCTGAATTCCGGTCTCCC
DNA 2: TGGTGGCTACGACGGGATT
B4: GUAAAGC (DNA:RNA)
RNA: B2 RNA with C25G, A26U, C28A, C29A, U30G
DNA 1: CAATCTGAATTCCGGTCTCCC
DNA 2: TGGTGGCTACGACGGGATT
B5: GUGAUCG (DNA:RNA)
RNA: B1 RNA with U25G, G26U, G28A, G29U, A30C
DNA 1: CAATCTGAATTCCGGTCTCCC
DNA 2: TGGTGGCTACGACGGGATT
B6: GGUUGAC (DNA:RNA)
RNA: B1 RNA with U25G, G27U, G28U, G31C
DNA 1: CAATCTGAATTCCGGTCTCCC
DNA 2: TGGTGGCTACGACGGGATT
B7: ACAUGUC (DNA:RNA)
RNA: B2 RNA with C25A, A26C, C28U, C29G
DNA 1: CAATCTGAATTCCGGTCTCCC
DNA 2: TGGTGGCTACGACGGGATT
B8: CCAAGCG (DNA:RNA)
RNA: B2 RNA with A26C, C28A, C29G, U30C, C31G
DNA 1: CAATCTGAATTCCGGTCTCCC
DNA 2: TGGTGGCTACGACGGGATT
B9: CUAACUA (DNA:RNA)
RNA: B2 RNA with A26U, C28A, C31A
DNA 1: CAATCTGAATTCCGGTCTCCC
DNA 2: TGGTGGCTACGACGGGATT
B10: GUCAAAC (DNA:RNA)
RNA: B2 RNA with C25G, A26U, A27C, C28A, C29A, U30A
DNA 1: CAATCTGAATTCCGGTCTCCC
DNA 2: TGGTGGCTACGACGGGATT
B11: AGGUAAU (DNA:RNA)
RNA: B1 RNA with U25A, G28U, G29A, G31U
DNA 1: CAATCTGAATTCCGGTCTCCC
DNA 2: TGGTGGCTACGACGGGATT
B12: CGCCACG (DNA:RNA)
RNA: B2 RNA with A26G, A27C, C29A, U30C, C31G
DNA 1: CAATCTGAATTCCGGTCTCCC
DNA 2: TGGTGGCTACGACGGGATT
B13: CCUUCCU (DNA:RNA)
RNA: B2 RNA with A26C, A27U, C28U, U30C, C31U
DNA 1: CAATCTGAATTCCGGTCTCCC
DNA 2: TGGTGGCTACGACGGGATT
B14: GUAGAGU (DNA:RNA)
RNA: B2 RNA with C25G, A26U, C28G, C29A, U30G, C31U
DNA 1: CAATCTGAATTCCGGTCTCCC
DNA 2: TGGTGGCTACGACGGGATT
B15: CCAGUCU (DNA:RNA)
RNA: B2 RNA with A26C, C28G, C29U, U30C, C31U
DNA 1: CAATCTGAATTCCGGTCTCCC
DNA 2: TGGTGGCTACGACGGGATT
B16: AGCAAAC (DNA:RNA)
RNA: B1 RNA with U25A, G27C, G28A, G29A, G31C
DNA 1: CAATCTGAATTCCGGTCTCCC
DNA 2: TGGTGGCTACGACGGGATT
B17: GGUAGCA (DNA:RNA)
RNA: B1 RNA with U25G, G27U, G28A, A30C, G31A
DNA 1: CAATCTGAATTCCGGTCTCCC
DNA 2: TGGTGGCTACGACGGGATT
B18: GUCUAGG (DNA:RNA)
RNA: B1 RNA with U25G, G26U, G27C, G28U, G29A, A30G
DNA 1: CAATCTGAATTCCGGTCTCCC
DNA 2: TGGTGGCTACGACGGGATT
B19: CGUUGAA (DNA:RNA)
RNA: B1 RNA with U25C, G27U, G28U, G31A
DNA 1: CAATCTGAATTCCGGTCTCCC
DNA 2: TGGTGGCTACGACGGGATT
B20: AUCAAUG (DNA:RNA)
RNA: B2 RNA with C25A, A26U, A27C, C28A, C29A, C31G
DNA 1: CAATCTGAATTCCGGTCTCCC
DNA 2: TGGTGGCTACGACGGGATT
B21: CCCCAGC (DNA:RNA)
RNA: B2 RNA with A26C, A27C, C29A, U30G
DNA 1: CAATCTGAATTCCGGTCTCCC
DNA 2: TGGTGGCTACGACGGGATT
B22: CGGCGUC (DNA:RNA)
RNA: B2 RNA with A26G, A27G, C29G
DNA 1: CAATCTGAATTCCGGTCTCCC
DNA 2: TGGTGGCTACGACGGGATT
B23: AUUACUU (DNA:RNA)
RNA: B2 RNA with C25A, A26U, A27U, C28A, C31U
DNA 1: CAATCTGAATTCCGGTCTCCC
DNA 2: TGGTGGCTACGACGGGATT
B24: CCAAAUC (DNA:RNA)
RNA: B2 RNA with A26C, C28A, C29A
DNA 1: CAATCTGAATTCCGGTCTCCC
DNA 2: TGGTGGCTACGACGGGATT
B25: GUCAGGC (DNA:RNA)
RNA: B2 RNA with C25G, A26U, A27C, C28A, C29G, U30G
DNA 1: CAATCTGAATTCCGGTCTCCC
DNA 2: TGGTGGCTACGACGGGATT
B26: CCAGAAU (DNA:RNA)
RNA: B2 RNA with A26C, C28G, C29A, U30A, C31U
DNA 1: CAATCTGAATTCCGGTCTCCC
DNA 2: TGGTGGCTACGACGGGATT
B27: UAGUUCC (DNA:RNA)
RNA: B2 RNA with C25U, A27G, C28U, C29U, U30C
DNA 1: CAATCTGAATTCCGGTCTCCC
DNA 2: TGGTGGCTACGACGGGATT
B28: CCCAAAU (DNA:RNA)
RNA: B2 RNA with A26C, A27C, C28A, C29A, U30A, C31U
DNA 1: CAATCTGAATTCCGGTCTCCC
DNA 2: TGGTGGCTACGACGGGATT
B29: GAGUGCA (DNA:RNA)
RNA: B1 RNA with U25G, G26A, G28U, A30C, G31A
DNA 1: CAATCTGAATTCCGGTCTCCC
DNA 2: TGGTGGCTACGACGGGATT
B30: CCCAUUA (DNA:RNA)
RNA: B2 RNA with A26C, A27C, C28A, C29U, C31A
DNA 1: CAATCTGAATTCCGGTCTCCC
DNA 2: TGGTGGCTACGACGGGATT
B31: CCAAAAA (DNA:RNA)
RNA: B2 RNA with A26C, C28A, C29A, U30A, C31A
DNA 1: CAATCTGAATTCCGGTCTCCC
DNA 2: TGGTGGCTACGACGGGATT

In the test the target is T1, RBFOX1 RRM (Homo sapiens, UniProt Q9NWB1 109-208).
T1 sequence: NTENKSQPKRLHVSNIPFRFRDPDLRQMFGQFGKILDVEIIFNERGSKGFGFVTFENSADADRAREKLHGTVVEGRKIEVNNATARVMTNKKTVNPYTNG
In words: EMSA; HiTS-Eq, 1 nM pool, 10 min; buffer printed only for the single-RNA assays: 10 mM Tris pH 7.5, 150 mM NaCl, 3.4 mM EDTA, 0.001% NP-40, 30 C. The conditions noted are these: tags: His6 N-terminal (pET28a); label: 5' 32P. The gist of the method: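 Purified RbFox RRM (wild type or mutant) was equilibrated for 10 min in 50 µL with 1 nM of a 5′-radiolabelled pool of RNA with 7 randomized nucleotides, its flanks annealed to DNA oligonucleotides, across increasing protein concentrations. Free RNA was separated by 8% native PAGE, excised, reverse-transcribed, PCR-barcoded and sequenced on an Illumina HiSeq 2500. Relative association constants came from read-count changes of each variant against the control reaction, normalised to the cognate motif.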
A general note: A gel shift assay detects complexes by their altered migration in electrophoresis.
With B1, the binding signal is 0.0199 KA relative to UGCAUGU. With B2 the figure was 0.00479 KA relative to UGCAUGU; with B3, 0.0115 KA relative to UGCAUGU; with B4, 0.00707 KA relative to UGCAUGU. In the case of B5, the binding signal was 0.0195 KA relative to UGCAUGU. With B6, the binding signal was 0.00376 KA relative to UGCAUGU.

Take B7: the binding signal is 0.00443 KA relative to UGCAUGU. The value for B8 was 0.00169 KA relative to UGCAUGU. As to B9, the binding signal is 0.00225 KA relative to UGCAUGU. Turning to B10, the binding signal is 0.00195 KA relative to UGCAUGU. Consider B11, for which the binding signal is 0.00631 KA relative to UGCAUGU. With B12 the figure was 0.0114 KA relative to UGCAUGU; with B13, 0.00632 KA relative to UGCAUGU; with B14, 0.0112 KA relative to UGCAUGU. Consider B15, for which the binding signal was 0.00457 KA relative to UGCAUGU. In the case of B16, the binding signal was 0.00205 KA relative to UGCAUGU. With B17 the figure was 0.0139 KA relative to UGCAUGU; with B18, 0.0126 KA relative to UGCAUGU. For the molecule B19, the binding signal is 0.0143 KA relative to UGCAUGU.

Take B20: the binding signal is 0.00341 KA relative to UGCAUGU. The value for B21 was 0.00528 KA relative to UGCAUGU.

Take B22: the binding signal was 0.019 KA relative to UGCAUGU. Take B23: the binding signal is 0.00236 KA relative to UGCAUGU. Consider B24, for which the binding signal was 0.000938 KA relative to UGCAUGU. The value for B25 was 0.00695 KA relative to UGCAUGU. The value for B26 was 0.00415 KA relative to UGCAUGU; that for B27 was 0.0151 KA relative to UGCAUGU; that for B28 was 0.00483 KA relative to UGCAUGU. For B29, the binding signal was 0.0228 KA relative to UGCAUGU. Consider B30, for which the binding signal is 0.00381 KA relative to UGCAUGU. For B31, the binding signal was 0.00181 KA relative to UGCAUGU.
